± gives the standard deviation. The full ranking holds about 5,500 sequences; the median of “pre-steady-state target cleavage rate” is about 0.1, and the highest 2% start at about 0.64. The entries are a selection whose mix differs from that of the whole data set.
What follows are sequences tested on MIWI (PIWIL1) piRISC loaded with piRNA #2 (30 nt) (assay: pre-steady-state target cleavage rate (min^-1); MIWI and MILI are mouse PIWI proteins and EfPiwi is from a freshwater sponge; tags in brackets are library labels; higher = faster piRNA-guided slicing of the target). Settings: guide: piRNA #2 5'p-UUAGGUAACCCAGUAGAUCCAGAGGAAUUC; auxiliary factor: 500 nM mouse GTSF1.
Procedure: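 Cleave-'n-Seq: a library of target RNAs (target site embedded in constant flanks, ACAGCATTCCGCGTTAGTGATATCCG... 5' flank; DNA-blocked outside the site) at 0.1 nM was incubated with 1 nM active mouse MILI or MIWI piRISC (synthetic 5'-monophosphorylated piRNA guide) with or without 500 nM mouse GTSF1 at 33 °C for 1 min to 16 h. Uncleaved targets were sequenced and normalised to non-target controls, and the pooled three trials were fitted to a burst-and-steady-state model to give the pre-steady-state cleavage rate (min^-1; k3 is constrained to at most 1e-4). Sequence is the target site only; target names encode pairing extent (gX:gY) and contiguous / 1-mismatch / 2-mismatch / bulge geometry. Fits with R² ≤ 0 are excluded.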

Row | Sequence | pre-steady-state target cleavage rate
1 | GGAUUCCUCUGGAUCUACUGGGUUACCUAA | 0.0367 ± 0.018
2 | CUUAAGGUCUGGAUCUACUGGGUUACGAUA | 0.0701 ± 0.017
3 | GAUUUCCUCUGGAUCUACUGGGUUACCAAA | 0.264 ± 0.051
4 | CUUAUCCUCAGGAUCUACUGGGAUACCUAA | 0.403 ± 0.056
5 | GAAUUCCUCUGGAUAUACUGGGUUACCUAA | 0.551 ± 0.038
6 | CUUUUCCUCUGGAUCUAGUGGGUUACCUUA | 0.137 ± 0.023
7 | CUUAAGGACUGGAUCUACUGGGUCACCUAA | 0.0525 ± 0.028
8 | CUUAUCCUCAGGAUCUACUCGGUUACCUAA | 0.0707 ± 0.016
9 | CUUAACCUCUGGAUCUACUCGGUUACCUAA | 0.0715 ± 0.014
10 | CUUAUCCUCUGGAUCAACUCGGUUACCUAA | 0.0898 ± 0.018
11 | CAAUUCCUCUGGAUCUAGUGGGUUACGUAA | 0.232 ± 0.033
12 | CUUAAGGAGAGGAUCUACUCCCUUACCUAA | < 0.0001
13 | CUUUAUCCUCUGGAUCUACUGGGUUACCUAA | 0.347 ± 0.064
14 | CUUUACGUCUGGAUCUACUGGGUUACCUAA | 0.326 ± 0.029
15 | GUAUUGCUCUGGAUCUACUGGGUUACCUAA | 0.0197 ± 0.013
16 | CUAAUCCUCUGGAUCUACUGGCUUACCUAA | 0.0988 ± 0.012
17 | CAAUUCCCUGGAUCUACUGGGUUACCUAA | 0.492 ± 0.047
18 | CUUAAGGAGAGGAACUACUGGGUUACGUAA | 0.00791 ± 0.0056
19 | CAAUUCCUCUGGAUCUACUGGGUUACCUGA | 0.328 ± 0.086
20 | CUUAACCUCUGGAUCUACUGGCGUUACCUAA | 0.0045 ± 0.0034
21 | CUUAAGCUCUGCAUCUACUGGCUUACCUAA | 0.0714 ± 0.013
22 | GAAUUCCUCUGGAUCUACUGGGUAUACCUAA | 0.322 ± 0.042
23 | CUAUUCGUCUGGAUCUACUGGGUUAGCUAA | 0.262 ± 0.06
24 | CUUAAGGUCUGGAUCUACACCGUUACCUAA | 0.0154 ± 0.0019

Row | Sequence | pre-steady-state target cleavage rate
25 | CUUAAGGUCUGGAUCAACUGGGUUACCUAA | 0.243 ± 0.034
26 | CUUAACCUCAGGAUCUACUGGGUUAGCUAA | 0.0896 ± 0.024
27 | GAUUUCCUCUGGAUCUACUGCGUUACCUAA | 0.363 ± 0.06
28 | CUUAAGGUCUGGAGCUACUGGGUUACCUAA | 0.201 ± 0.042
29 | CUUAAGCUCUGGAACUUCUGGGUUACCUAA | 0.133 ± 0.019
30 | CUUAAGGACUGGAUCCUACUGGGUUACCUAA | 0.0141 ± 0.0092
31 | CUUAAGGACAGGAUCUACUGGGUUACCUUA | 0.0461 ± 0.019
32 | CAAUUCCUCUGGAUCUUCAGGGUUACCUAA | 0.162 ± 0.021
33 | CUUAAGGAGUGGAUCUGCUGGGUUACCUAA | 0.0533 ± 0.017
34 | CUUAUCCUGUGGAUCUACUGGGUUACCAAA | 0.166 ± 0.038
35 | GAAAUCCUCUGGAUGUACUGGGUUACCUAA | 0.28 ± 0.046
36 | CUUAAGGAGACCAUCUACUGGGUUACCGUAA | 0.00398 ± 0.0035
37 | CAAUUCCUCUGGAUCUACAGGCUUACCUAA | 0.022 ± 0.0086
38 | GAAUUCCUCUGGAUCAACUCGGUUACCUAA | 0.0852 ± 0.017
39 | GGAAUUCCUCUGGAUCUACUGGGUUACCUAA | 0.119 ± 0.034
40 | CUUUUCGUGUGGAUCUACUGGGUUACCUAA | 0.34 ± 0.026
41 | CUUAACCUCAGGAUCUACUCGGUUACCUAA | 0.0602 ± 0.016
42 | CUUAACCUCUGCAUCUACAGGGUUACCUAA | 0.186 ± 0.017
43 | CUUAACCUCUGGAUCUACUGGGUUUGCUAA | 0.148 ± 0.02
44 | GAAUUCCUCUGGAUCUACACGGUUACCUAA | 0.16 ± 0.024
45 | CUUAAGCUCUGGAUCCUACUGGGUUACCUAA | 0.0287 ± 0.0091
46 | CAAUUCCACUGGUUCUACUGGGUUACCUAA | 0.593 ± 0.041
47 | CUUAAGGACUGGAUCUACUGGGUUACUUAA | 0.337 ± 0.061
48 | CUUAAGGUCUGGGAUCUACUGGGUUACCUAA | 0.132 ± 0.022

Row | Sequence | pre-steady-state target cleavage rate
49 | GAAUUGCUCUGGAUCUACAGGGUUACCUAA | 0.0505 ± 0.016
50 | CUUAACCUCAGGAUCUACUGGGUUACCUAA | 0.482 ± 0.056
51 | CUAUUCGUCUGGAUCUACUCGGUUACCUAA | 0.044 ± 0.023
52 | CUUAAGGACUGGAUCUACUGGGUUACGUUA | 0.0681 ± 0.039
53 | CUUAUCCUCUGGAUGCUACUGGGUUACCUAA | 0.277 ± 0.034
54 | GAAUUGCUCUGGAUCUACUGGGUUUCCUAA | 0.111 ± 0.029
55 | CUUAAGGUCUGGAUGUACUGGGAUACCUAA | 0.099 ± 0.027
56 | GAAUUCCUCUGGAUCUACUAGGGUUACCUAA | 0.00393 ± 0.0033
57 | CUAUUCCUCUGGAUCUACUGCGUUACCUAA | 0.521 ± 0.065
58 | CUUAAGGAGACCUACUACUGGGUAUACCUAA | 0.0037 ± 0.0027
59 | CUUAAGCACUGGAUCAACUGGGUUACCUAA | 0.242 ± 0.025
60 | CUUAAGCUCUGGAUCAACUGGGUAACCUAA | 0.0351 ± 0.0088
61 | CUUAAGGACUGGAUCUACUGGGUUACCUUA | 0.105 ± 0.041
62 | CAAUUCCUCUGGAUCUACUGGGUUUCCUAA | 0.407 ± 0.063
63 | CUUAAGGUCUCGAUCUACUGGGUAACCUAA | 0.0591 ± 0.014
64 | CUUUUCCUCUGGAUCUACUGGGGUACCUAA | 0.101 ± 0.021
65 | CUUUACCUCUGGAUCUACUGGGUUACGUAA | 0.454 ± 0.028
66 | CUUUUCCUCUGGAUCUACAGCGUUACCUAA | 0.129 ± 0.014
67 | CUAUUCCUCUGGAUCUACUGGGUAUCCUAA | 0.121 ± 0.033
68 | CUAUUCCUCUCCUUCUACUGGGUUACCUAA | 0.569 ± 0.049
69 | CUUAUCCUCUGGAUCUACUGGGUGUACCUAA | 0.264 ± 0.04
70 | CUAUUCCUCUGGAUCUACUGGGAAACCUAA | 0.238 ± 0.043
71 | CUUAUCCUCUGGAUCUACUGGGUUACGUUA | 0.469 ± 0.07
72 | CUUAUCCUCUGGAUCUACUCGGUUUCCUAA | 0.0139 ± 0.0067

From the supplement of paper PMC10338343
